Results: article PMC4336329 (PLoS ONE, 2015)
Hit rate of the full screen: of about 310,000 compounds, about 14,000 (4.5%) showed an effect of 50% or more. Effects have a minus sign here. The list shows a part of the results.

Biological target: human ether-à-go-go-related gene (hERG) potassium channel (human, UniProt Q12809)
Test: primary screen, population patch clamp on CHO cells stably expressing hERG
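Note: peak tail current of the secondary pulse compared with the same well before compound.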

Chain of human ether-à-go-go-related gene (hERG) potassium channel (Q12809 whole entry, looked up): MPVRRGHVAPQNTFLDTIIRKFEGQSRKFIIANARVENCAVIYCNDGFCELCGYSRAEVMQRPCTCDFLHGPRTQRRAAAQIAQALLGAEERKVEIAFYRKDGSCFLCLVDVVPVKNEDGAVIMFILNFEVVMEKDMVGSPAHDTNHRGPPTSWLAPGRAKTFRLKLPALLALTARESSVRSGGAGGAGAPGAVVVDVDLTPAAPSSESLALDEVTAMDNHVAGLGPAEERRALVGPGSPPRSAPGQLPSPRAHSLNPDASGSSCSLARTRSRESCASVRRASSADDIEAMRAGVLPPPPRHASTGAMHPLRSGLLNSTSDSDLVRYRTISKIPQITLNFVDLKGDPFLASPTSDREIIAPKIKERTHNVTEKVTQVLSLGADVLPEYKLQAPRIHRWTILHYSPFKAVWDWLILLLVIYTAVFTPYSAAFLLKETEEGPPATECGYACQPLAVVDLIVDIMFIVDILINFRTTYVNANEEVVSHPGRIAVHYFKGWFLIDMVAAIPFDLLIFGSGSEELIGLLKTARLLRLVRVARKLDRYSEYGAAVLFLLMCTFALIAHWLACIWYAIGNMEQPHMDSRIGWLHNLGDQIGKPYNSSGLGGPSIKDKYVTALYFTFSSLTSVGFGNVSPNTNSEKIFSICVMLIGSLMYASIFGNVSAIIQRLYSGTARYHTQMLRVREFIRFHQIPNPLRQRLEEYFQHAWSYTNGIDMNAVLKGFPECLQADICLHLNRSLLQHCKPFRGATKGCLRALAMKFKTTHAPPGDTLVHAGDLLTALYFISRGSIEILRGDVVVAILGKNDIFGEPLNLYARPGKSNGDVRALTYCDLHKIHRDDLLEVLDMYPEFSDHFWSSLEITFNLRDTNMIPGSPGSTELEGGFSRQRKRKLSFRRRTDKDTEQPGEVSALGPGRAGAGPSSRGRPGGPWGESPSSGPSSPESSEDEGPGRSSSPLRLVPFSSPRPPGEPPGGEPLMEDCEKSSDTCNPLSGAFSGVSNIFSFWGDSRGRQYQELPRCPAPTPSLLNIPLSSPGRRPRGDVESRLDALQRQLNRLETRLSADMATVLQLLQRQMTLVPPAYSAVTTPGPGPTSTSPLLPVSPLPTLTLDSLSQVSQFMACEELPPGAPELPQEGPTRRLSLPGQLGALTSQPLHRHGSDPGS

Compared with Cc1ccc([N+](=O)[O-])c(OCCN2CCNCC2)c1.O=C(O)C(=O)O, O=C(O)C(=O)O.O=C(c1cccnc1)N1CCN(Cc2cccc(Br)c2)CC1 is lower in “hERG current change (%, negative = inhibition) at 10uM” value: -14.6% for the first, -18% for the second.

Going from O=C(NCCNC(=O)c1cnccn1)c1cccc(Cl)c1 to Cc1ccc(C)c(NC(=O)CN(C)C(=O)c2ccncc2)c1, the “hERG current change (%, negative = inhibition) at 10uM” value rises from 4.53% to 12.7%.

Going from CN(Cc1nc(Cc2cccc(C(F)(F)F)c2)no1)C1CC(C)(C)NC(C)(C)C1 to FC(F)(F)c1ccc(Cl)c(NC2=NCCCCC2)c1, the “hERG current change (%, negative = inhibition) at 10uM” value rises from -12.3% to 13.4%.

Going from Cc1ccc(NCC(O)Cn2cnc3c2c(=O)n(C)c(=O)n3C)cc1 (stereo not shown) to COC(=O)CNC(=O)c1sc2ncn(CC(=O)Nc3ccc(C)c(Cl)c3)c(=O)c2c1C, the “hERG current change (%, negative = inhibition) at 10uM” value rises from -36% to -0.953%.

Compared with COc1cc(/C=C/c2[nH]c(=O)[nH]c(=O)c2[N+](=O)[O-])cc(OC)c1O, COc1ccc(OC)c(S(=O)(=O)Nc2cc3c(cc2N2CCCC2)n(C)c(=O)c(=O)n3C)c1 is lower in “hERG current change (%, negative = inhibition) at 10uM” value: 7.26% for the first, -50.7% for the second.

Compared with O=C(NCC1CCCO1)C(c1cccs1)N(C(=O)Cn1nnc(-c2cccs2)n1)C1CCCC1 (stereo not shown), CCOc1ccccc1C(=O)N1CCCCC1C (stereo not shown) is higher in “hERG current change (%, negative = inhibition) at 10uM” value: -15.8% for the first, 17.6% for the second.

Compared with CN(C)C(=O)Cn1c(SCC(=O)NCc2ccc3c(c2)OCO3)nc2ccccc21, COCCCn1c(=N)c(C(=O)NCc2ccc3c(c2)OCO3)cc2c(=O)n3ccccc3nc21 is lower in “hERG current change (%, negative = inhibition) at 10uM” value: 4.11% for the first, -83.5% for the second.

First: Cc1ccccc1NC(=O)CS(=O)(=O)c1cn(CC(=O)N2CCOCC2)c2ccccc12
Second: O=C(c1coc(=O)c2ccccc12)N1CCN(Cc2ccccc2)CC1
The “hERG current change (%, negative = inhibition) at 10uM” value of the first is higher: 8.14% for the first, -51.2% for the second.

Going from COc1ccc(NC(=O)COC(=O)CCCc2c[nH]c3ccccc23)cc1OC to COc1ccc(CCNC(=O)CSCc2ccc(Br)cc2)cc1OC, the “hERG current change (%, negative = inhibition) at 10uM” value rises from 1.75% to 4.56%.

Going from CCCCCO to CCCc1cc(=O)c2c(O)ccc(OC)c2o1, the “hERG current change (%, negative = inhibition) at 10uM” value falls from 16.7% to 5.18%.

First: Cc1ccc(CNC(=O)CCS(=O)(=O)c2cccc3nsnc23)cc1
Second: Cc1ccc(CCNC(=O)c2nn(C)c3c2CS(=O)(=O)c2ccccc2-3)cc1
The “hERG current change (%, negative = inhibition) at 10uM” value of the first is higher: 8.67% for the first, -39.7% for the second.

First: CC1CCCCN1C(=O)C12CCC(C)(C(=O)C1)C2(C)C (stereo not shown)
Second: CC1CCN(S(=O)(=O)c2ccc3c(c2)n(C)c(=O)n3C)CC1
The “hERG current change (%, negative = inhibition) at 10uM” value of the first is higher: -12.2% for the first, -14.6% for the second.

Compared with CCc1ccc(C(O)(c2ccccc2OC)C(CN2CCOCC2)c2ccccc2)cc1.Cl (stereo not shown), CCOC(=O)c1[nH]c2ccc(F)cc2c1NC(=O)CCN1CCOCC1 is higher in “hERG current change (%, negative = inhibition) at 10uM” value: -16.5% for the first, 3.03% for the second.

Compared with O=c1[nH]c(=S)n(C2CC2)c(O)c1/C=N/Nc1cccc2ccccc12, Cc1cccc(OCC(=O)NCC(=O)N/N=C/c2c(C)[nH]c3ccccc23)c1 is lower in “hERG current change (%, negative = inhibition) at 10uM” value: 2.93% for the first, -4.32% for the second.

Going from CCOC(=O)c1sc2nc(C)cc(C)c2c1N to CCOC(=O)c1c(NC(=O)CC2SC(N)=NC2=O)sc2c1CCCC2 (stereo not shown), the “hERG current change (%, negative = inhibition) at 10uM” value rises from -8.58% to -4.02%.

Going from CCC(Sc1ccc(Cl)cc1)C(=O)Nc1nnc(-c2cccc([N+](=O)[O-])c2)s1 (stereo not shown) to COc1cc(NS(=O)(=O)c2ccc(NC(=O)/C=C/c3cccc([N+](=O)[O-])c3)cc2)ncn1, the “hERG current change (%, negative = inhibition) at 10uM” value falls from 10.3% to 7.27%.

First: Fc1cccc2sc(Nc3nc4cc5c(cc4s3)OCO5)nc12
Second: COc1ccc(-c2noc(CNC(=O)c3ccc4c(c3)OCO4)n2)cc1OC
The “hERG current change (%, negative = inhibition) at 10uM” value of the first is higher: 20.3% for the first, 11.9% for the second.

Going from CC(C)(C)NC(=O)C(c1ccsc1)N(CCc1ccccc1)C(=O)Cn1nnc2ccccc21 (stereo not shown) to COC(=O)c1cccc(NC(=O)CSc2nnc(C)n2Cc2ccccc2)c1, the “hERG current change (%, negative = inhibition) at 10uM” value falls from 7.45% to -15.2%.

Compared with COC(=O)C(CCSC)NC(=O)CNS(=O)(=O)c1ccc(Br)cc1 (stereo not shown), O=C(CSCC(=O)OCC(=O)c1ccc(Br)cc1)Nc1ccc(Br)cc1 is higher in “hERG current change (%, negative = inhibition) at 10uM” value: -12.1% for the first, 3.17% for the second.

Going from COC(=O)c1sccc1NC(=O)c1c(C)cc(=O)oc1C to COc1ccc(NC(=O)c2sccc2C)c([N+](=O)[O-])c1, the “hERG current change (%, negative = inhibition) at 10uM” value rises from 5.16% to 13.2%.

Compared with Cc1ccc(-c2noc(CCC(=O)NCCN3CCOCC3)n2)cc1, COc1ccc(NS(=O)(=O)N2CCOCC2)cc1 is higher in “hERG current change (%, negative = inhibition) at 10uM” value: 4.65% for the first, 13.8% for the second.

First: NC(=O)C1CCN(C(=O)COc2ccc3ccc(=O)oc3c2)CC1
Second: COc1ccc(OCC(=O)c2c(O)c3ccccc3oc2=O)cc1
The “hERG current change (%, negative = inhibition) at 10uM” value of the first is higher: 3.48% for the first, -12.4% for the second.

Going from CC(Sc1ccsc1[N+](=O)[O-])C(=O)N1CCN(c2ccccn2)CC1 (stereo not shown) to CCOc1ccc(NC(=O)c2ccc(F)c(S(=O)(=O)N3CCN(c4ccccn4)CC3)c2)cc1, the “hERG current change (%, negative = inhibition) at 10uM” value rises from -1.67% to 0.277%.

Going from COC(=O)C1=CN(C(C)c2ccccc2)C=C(C(=O)OC)C1c1cc(OC)c(OC)c(OC)c1 (stereo not shown) to COc1ccc(S(=O)(=O)Nc2c(C)n(C)n(-c3ccccc3)c2=O)cc1C(=O)O, the “hERG current change (%, negative = inhibition) at 10uM” value rises from -10.1% to 17.2%.

Going from O=C(Nc1cccnc1)c1ccco1 to O=C(Nc1ccc(Cl)cn1)C1COc2ccccc2O1 (stereo not shown), the “hERG current change (%, negative = inhibition) at 10uM” value falls from 19.5% to 14.2%.

First: NNC(=O)CC12CC3CC(C1)CC(n1ncnn1)(C3)C2
Second: Cc1occc1-c1nnc(SCC(=O)N2CCOCC2)o1
The “hERG current change (%, negative = inhibition) at 10uM” value of the first is lower: -15.1% for the first, 4.92% for the second.

Going from C=CCN(c1ccccc1)S(=O)(=O)c1cccc(C(=O)NNC(=O)c2ccccc2O)c1 to Cc1sc(NC(=O)c2ccccc2)c(C(=O)c2ccccc2)c1C, the “hERG current change (%, negative = inhibition) at 10uM” value rises from -3.7% to 3.34%.

Compared with N=c1ncn(Cc2ccccc2)c2nc(SCCOc3ccccc3)[nH]c12, CN(C)S(=O)(=O)c1cccc(NC(=O)CSc2nncn2-c2ccccc2)c1 is higher in “hERG current change (%, negative = inhibition) at 10uM” value: -6.87% for the first, -6.41% for the second.

Compared with CC(=O)NC1=NN(C(C)=O)C(C)(CC(=O)OC(C)(C)C)S1 (stereo not shown), CC(C)C[C@H](NC(=O)c1[nH]cnc1C(=O)Nc1ccc(Cl)cc1)C(=O)OC(C)(C)C is higher in “hERG current change (%, negative = inhibition) at 10uM” value: 8.32% for the first, 21.2% for the second.

Compared with CCCN1C(=O)c2ccccc2NC1c1ccc(Cl)cc1 (stereo not shown), O=C(Nc1cc(Br)ccc1O)C1CC(c2ccccc2Cl)=NO1 (stereo not shown) is higher in “hERG current change (%, negative = inhibition) at 10uM” value: -7.23% for the first, 19.5% for the second.

Compared with O=C(c1cc2c(=O)oc3ccccc3c2s1)N1CCOCC1, CC1CCCN(Cc2c(C(=O)N3CCc4ccccc4C3)nc3ccc(Cl)cn23)C1 (stereo not shown) is lower in “hERG current change (%, negative = inhibition) at 10uM” value: -0.51% for the first, -34.5% for the second.

Compared with Cc1ccc(NC(=S)Nc2ccc3[nH]c(=O)[nH]c3c2)cc1C, Cc1ccc(-c2nc3ccccc3c(=O)n2NC(=O)c2cccs2)cc1 is lower in “hERG current change (%, negative = inhibition) at 10uM” value: 17.1% for the first, 4.29% for the second.

Going from Cc1nnc(NC(=O)CSc2nnc(Cc3cccn3C)n2-c2ccccc2)s1 to CCOC(=O)/C(=N/Nc1ccccc1)Sc1nnnn1-c1ccc(C)cc1, the “hERG current change (%, negative = inhibition) at 10uM” value rises from 1% to 1.3%.

Going from Cc1cc2nc(C(C)(C)C)cc(N)n2n1 to Cc1cc2nc(C)c3c(n2n1)CCC3, the “hERG current change (%, negative = inhibition) at 10uM” value rises from 0.227% to 16.3%.

First: CC1(C)N=C(/C=N/O)C=[N+]1[O-]
Second: CC1(C)CC(=O)C=C(Nc2ccc(Br)cc2F)C1
The “hERG current change (%, negative = inhibition) at 10uM” value of the first is higher: 6.34% for the first, 1.23% for the second.

First: Cc1cc2c(s1)CCCCC(=O)N2
Second: Cc1nn(CC(C)C)c(=S)[nH]c1=O
The “hERG current change (%, negative = inhibition) at 10uM” value of the first is higher: 5.42% for the first, -2.44% for the second.

First: Cc1ccc(-c2csc3nc4cc(C(N)=O)ccc4c(=O)n23)cc1
Second: Cc1ccc(/C=C2\SC(=S)N(CCC(=O)NNC(=O)c3cccc(O)c3)C2=O)cc1
The “hERG current change (%, negative = inhibition) at 10uM” value of the first is lower: -4.13% for the first, 10.3% for the second.

First: COCC(=O)Nc1nnc(SCC(=O)NCc2cccs2)s1
Second: CCOc1ccc(/C=N/OCC(=O)NCc2cccs2)cc1
The “hERG current change (%, negative = inhibition) at 10uM” value of the first is higher: 7.54% for the first, -11.6% for the second.

Going from NC(=S)N/N=C/c1ccccc1OC(=O)/C=C/c1ccccc1 to O=C1/C(=C\Nc2ccccc2)CCN1c1ncccn1, the “hERG current change (%, negative = inhibition) at 10uM” value rises from -0.227% to 5.84%.

Compared with CCOC(=O)COc1cc(Br)c(C2NC(=O)NC(C)=C2C(C)=O)cc1OCC (stereo not shown), CCOc1ccc(NC(=O)CN(C)C(=O)c2cc([N+](=O)[O-])ccc2N2CCOCC2)cc1OCC is lower in “hERG current change (%, negative = inhibition) at 10uM” value: 15.7% for the first, -52.5% for the second.

Compared with CCN(CC)CCN1C(=O)C(=O)/C(=C(/O)c2c(C)[nH]c(C(=O)OC)c2C)C1c1cccc(OC)c1 (stereo not shown), CCCC(C(=O)NCCC(C)C)N(Cc1ccccc1Cl)C(=O)c1snc(C(N)=O)c1N (stereo not shown) is higher in “hERG current change (%, negative = inhibition) at 10uM” value: -0.157% for the first, 0.597% for the second.

First: CC(=O)N1CCc2cc(S(=O)(=O)CCC(=O)N3CCN(c4ccccc4F)CC3)ccc21
Second: CC(=O)c1ccc(S(=O)(=O)N2CCCC(N(C)CCc3ccccn3)C2)cc1 (stereo not shown)
The “hERG current change (%, negative = inhibition) at 10uM” value of the first is higher: 6.13% for the first, -65.3% for the second.

Going from Cn1ccnc1C(=O)c1cc(SCC(=O)NC2CC2)nc2ccccc12 to CN(CCc1cnn(C)c1)Cc1cn(C)nc1-c1ccc2c(c1)OCCO2, the “hERG current change (%, negative = inhibition) at 10uM” value falls from 19% to 5.94%.

Going from CNC[C@@H](Cc1ccccc1)NC[C@@H](CC1CCCCC1)NCCCc1ccccc1 to O=C(c1ccco1)[C@@H]1[C@@H]2C(=O)N(c3ccc(F)cc3)C(=O)[C@@H]2C2c3ccccc3C=CN21 (stereo partly shown), the “hERG current change (%, negative = inhibition) at 10uM” value rises from -2.64% to 5.7%.
